The supplement of paper PMC10126150
Values marked as one replicate rest on one cluster of the flow cell; about a third of the high ones do not repeat.
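Further: ATP exposure 15 min at 22 °C before imaging.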

Each sequence was assayed on ATP (assay: switch fluorescence ratio, 500 uM ATP over buffer (Cy3 cluster intensity, sum of 5 cycles each) (fold (ratio)); higher = stronger signal-on switching upon ATP binding; sequences stand for … in TCGTCGGCAGCGTCAGATGTGTATAAGAGACAGTTTTTTTTTTTTTTTTTTTTTTTTT…TC). Details: aptamer strand: ATP DNA aptamer (quencher-CACCTGGGGGAGTATTGCGGAGGAAGG + anchor), 100 nM annealed; ATP concentration: 500 uM; one replicate.
Outline: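 The fluorescence ratio divides summed target-cycle Cy3 intensity by summed buffer-cycle Cy3 intensity for each cluster and is averaged per switch-domain sequence. Cy3-labelled switching-strand clusters on a modified Illumina MiSeq flow-cell were annealed to 100 nM quencher-labelled ATP aptamer, then imaged in selection buffer and again after 15 min with 500 uM ATP at 22 °C. Five such cycles were run, with NaOH stripping and re-annealing between them, and clusters outside 100-1000 RFU were excluded.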
Work on TATAGGTTCC yielded a switch fluorescence ratio of 1.02. In the case of GCTAGGCCCG, the switch fluorescence ratio is reported as 0.939. For CGTGTCAAGT, the switch fluorescence ratio was 0.965. With TTCTTCGCGT the switch fluorescence ratio was 3.49. With ACTTGCGACG the switch fluorescence ratio was 1.27. Sequence TTACACTCGC has a switch fluorescence ratio of 1.07. Sequence AGAAGGTCGA has a switch fluorescence ratio of 1.02. Work on AAGGGACTGT yielded a switch fluorescence ratio of 1.07. Work on TTTATCTGGC yielded a switch fluorescence ratio of 1.05. Work on GTCGGGCCAT yielded a switch fluorescence ratio of 1.02. Sequence TTTTACCCCT has a switch fluorescence ratio of 1.04. ATTACACCGT was tested, and the switch fluorescence ratio was 1.04. CGCATAATCT gave a switch fluorescence ratio of 2.17. GTGTTCAGTG showed a switch fluorescence ratio of 1.02. Work on CTTTAATGCT yielded a switch fluorescence ratio of 1.12. Work on ATATGTCCTT yielded a switch fluorescence ratio of 1.02. TGGGTGAAGT was tested, and the switch fluorescence ratio was 0.99. CCGAGCGGGT showed a switch fluorescence ratio of 1.49. AATGGGTCGG was tested, and the switch fluorescence ratio was 0.98. For CGGCCACAGA, the switch fluorescence ratio was 1.04. TGGAGAGTAT showed a switch fluorescence ratio of 0.941. With GCCAGAAATA the switch fluorescence ratio was 1.05. In the case of TCGTGGATAG, the switch fluorescence ratio is reported as 0.977. For GGTGGTCGG, the switch fluorescence ratio was 0.95. GGGTCACTGC showed a switch fluorescence ratio of 0.991. With GGGGTGAGCG the switch fluorescence ratio was 1.03. With GTATCAACAC the switch fluorescence ratio was 1.03. Work on TACCTCGACG yielded a switch fluorescence ratio of 1.28. Sequence TTTGTCTGCC has a switch fluorescence ratio of 1.04. With TAGCAAAAAA the switch fluorescence ratio was 1.08. CTGTAGTGGA showed a switch fluorescence ratio of 1.02. Sequence GCGTAAAAAT has a switch fluorescence ratio of 0.998. With ACCAGAATCA the switch fluorescence ratio was 1.05. In the case of GCGGTAAGTT, the switch fluorescence ratio is reported as 1. TTCTATTCAT was tested, and the switch fluorescence ratio was 1.01. Work on TATTGAATG yielded a switch fluorescence ratio of 0.979. CCTGACTTCC was tested, and the switch fluorescence ratio was 3.52. With TTGACTAAAT the switch fluorescence ratio was 1.02. With GAGTGCCTAG the switch fluorescence ratio was 0.956. TACACCCTGA showed a switch fluorescence ratio of 1.04. GTTTTGCCAC gave a switch fluorescence ratio of 0.98. In the case of CACGAGGGGC, the switch fluorescence ratio is reported as 0.988. Sequence AGATTTCTCA has a switch fluorescence ratio of 1.03. CCTTGTGCTC gave a switch fluorescence ratio of 1.28. With TTAACGTGGT the switch fluorescence ratio was 1.05. With CTTAGCGGAC the switch fluorescence ratio was 1.42. TTTAGTAGAC gave a switch fluorescence ratio of 0.997. Sequence CCTTTCTTA has a switch fluorescence ratio of 1.08. Sequence CACTTGTCTC has a switch fluorescence ratio of 0.98. GAGTTAGCTT gave a switch fluorescence ratio of 0.967. CGTTAATCTC gave a switch fluorescence ratio of 1.08. Sequence TGGTTCTGT has a switch fluorescence ratio of 0.95. AGGCTAAGCT showed a switch fluorescence ratio of 1.04. With ACCTTGATAC the switch fluorescence ratio was 1.5. In the case of GGTAGAAACG, the switch fluorescence ratio is reported as 0.968. Sequence CAGGTTATC has a switch fluorescence ratio of 0.997. GGTAACCCCG showed a switch fluorescence ratio of 1.08. In the case of TTGTTACCGG, the switch fluorescence ratio is reported as 1.02. ACGGAGTCGT gave a switch fluorescence ratio of 1.02. Work on TTACCATC yielded a switch fluorescence ratio of 0.947. TTGCGTCTTT showed a switch fluorescence ratio of 1.03. In the case of TCCCTTGTTG, the switch fluorescence ratio is reported as 1.05. With GTCAGTCGGT the switch fluorescence ratio was 0.994. TAGAGGTCTA gave a switch fluorescence ratio of 1. Work on GACTCAATTG yielded a switch fluorescence ratio of 1.02. Work on ATCCGCGACG yielded a switch fluorescence ratio of 1.66. For CCATAGGGGT, the switch fluorescence ratio was 1.01. GAGCCGCGGA gave a switch fluorescence ratio of 1. GGGAGCTGCT showed a switch fluorescence ratio of 0.969. With TGCTTGCTTA the switch fluorescence ratio was 0.942. Work on AGGCTATCGG yielded a switch fluorescence ratio of 0.977. TCGGTTATTG showed a switch fluorescence ratio of 0.992. CGGGCATTCG showed a switch fluorescence ratio of 1. Sequence ATACCTTTTA has a switch fluorescence ratio of 1.04. For ACGTCCTTCT, the switch fluorescence ratio was 0.991. CTTCCCGAGC showed a switch fluorescence ratio of 2.44. Sequence TTCTTCTTCT has a switch fluorescence ratio of 0.94. GTATTCCGAG was tested, and the switch fluorescence ratio was 1.12. Sequence CGCCGGGCAC has a switch fluorescence ratio of 1.24. Sequence AGTAATGGTC has a switch fluorescence ratio of 1.1. In the case of AATGGTACCG, the switch fluorescence ratio is reported as 1. With CGAATAGTAG the switch fluorescence ratio was 1.04. CAACTCAGAT showed a switch fluorescence ratio of 1. AGTATCGAGT gave a switch fluorescence ratio of 0.985. In the case of ATAGCATTTT, the switch fluorescence ratio is reported as 1.05. Sequence TTCTGACAGG has a switch fluorescence ratio of 1.02. Sequence CCAAGGAAGC has a switch fluorescence ratio of 1.14. For CAGCGCTGTG, the switch fluorescence ratio was 0.999. TCGCCGGGTA showed a switch fluorescence ratio of 0.988. For AACAGGGCAT, the switch fluorescence ratio was 1. TAATAACTCG gave a switch fluorescence ratio of 1.03. AAACTAGAGA was tested, and the switch fluorescence ratio was 1. ACATACCTAA showed a switch fluorescence ratio of 1.27. AGCGATTTTG gave a switch fluorescence ratio of 1.07. ATGTCAAGAC gave a switch fluorescence ratio of 1.68. In the case of GCGTACAAGT, the switch fluorescence ratio is reported as 0.985. In the case of TGACGATTGC, the switch fluorescence ratio is reported as 1.18. Sequence TCCAGAATTA has a switch fluorescence ratio of 0.957. AGAAGGCTAA gave a switch fluorescence ratio of 0.993. GCTGGTTTGC gave a switch fluorescence ratio of 0.991. Sequence CAGCAACGAG has a switch fluorescence ratio of 1.31. ATAGTGCCTG was tested, and the switch fluorescence ratio was 1. Work on ACGGTCATCG yielded a switch fluorescence ratio of 0.971. In the case of ACTCTCTTTG, the switch fluorescence ratio is reported as 1.02. GCATTATTAG was tested, and the switch fluorescence ratio was 0.989. Work on AAGGAGCAGA yielded a switch fluorescence ratio of 1.04. In the case of ATGTGGTGGA, the switch fluorescence ratio is reported as 1.03. ATATCAGGCA was tested, and the switch fluorescence ratio was 1.02. With GAGACCTCGA the switch fluorescence ratio was 1.02. In the case of ATATCATT, the switch fluorescence ratio is reported as 0.968. In the case of CATCCGATAA, the switch fluorescence ratio is reported as 6.68. In the case of GGTCCTGGAG, the switch fluorescence ratio is reported as 1.01. Sequence CATGTGGCCC has a switch fluorescence ratio of 0.995. GGCAGGTACC gave a switch fluorescence ratio of 1.04. Work on GAAATGTTTG yielded a switch fluorescence ratio of 1.05. With GAATTTGTC the switch fluorescence ratio was 1.03. For TGCAGGGTG, the switch fluorescence ratio was 1.14. ATAGTCGTGG gave a switch fluorescence ratio of 0.982. GCTACGTCTC was tested, and the switch fluorescence ratio was 1.04. With GAGTTCTTCG the switch fluorescence ratio was 0.963. TGTTCGGAGA was tested, and the switch fluorescence ratio was 0.975. Sequence AAAATGCGTA has a switch fluorescence ratio of 0.975. Work on CTAGTTCTAT yielded a switch fluorescence ratio of 0.981. TTGGGCTAGC was tested, and the switch fluorescence ratio was 1.02. Sequence CTCTCATGT has a switch fluorescence ratio of 1.02. AAAAGGTGGC gave a switch fluorescence ratio of 1.01. In the case of ACTTACATTA, the switch fluorescence ratio is reported as 1.26. Work on GAGTAAGGAA yielded a switch fluorescence ratio of 1.04. With TCACATTGTT the switch fluorescence ratio was 1.03. For TATTAAGGGC, the switch fluorescence ratio was 1.01. In the case of AGAATTGCTT, the switch fluorescence ratio is reported as 1.01. Sequence CAGTTGTCGT has a switch fluorescence ratio of 0.95. TTATATAC gave a switch fluorescence ratio of 1.25. CCATTCAAAT showed a switch fluorescence ratio of 1.02. GGGCTCCACA showed a switch fluorescence ratio of 1.02. ATTCGTTTAC gave a switch fluorescence ratio of 1.07. CAACGAGTC was tested, and the switch fluorescence ratio was 1.25. For TTTCTACTAA, the switch fluorescence ratio was 1.01. Sequence AATATATAAG has a switch fluorescence ratio of 0.985. AATTATAGCA showed a switch fluorescence ratio of 0.992. With GAAGTAGAAG the switch fluorescence ratio was 0.979. CGATAGATCT gave a switch fluorescence ratio of 0.961. Sequence CCAACTTAA has a switch fluorescence ratio of 1.04. CGCATTGTAG showed a switch fluorescence ratio of 1.04. CCTGCTTACT gave a switch fluorescence ratio of 2.56. Work on GGGTAAGCAC yielded a switch fluorescence ratio of 1.18. With CACCTACCGG the switch fluorescence ratio was 1.07. For TCAGGCTTTC, the switch fluorescence ratio was 1.05. For TCAAAAACAC, the switch fluorescence ratio was 1.77. For GGGAATCCCC, the switch fluorescence ratio was 2.9. For TTATACCAGG, the switch fluorescence ratio was 1.25. For AATATAGTGG, the switch fluorescence ratio was 0.958. GTGTCGGTTA gave a switch fluorescence ratio of 0.978. Sequence TGTTTTTTCA has a switch fluorescence ratio of 1.01. Work on TGTCTTGTGT yielded a switch fluorescence ratio of 0.957. TGCACGTTCT gave a switch fluorescence ratio of 1.04. For GGGACACCGG, the switch fluorescence ratio was 1.04. TATACTCCGT showed a switch fluorescence ratio of 2.29. With GCCACCATAA the switch fluorescence ratio was 1.07. For ATTGACTTCT, the switch fluorescence ratio was 1.02. With GTCCTTCCCA the switch fluorescence ratio was 1.27. Work on TGCCACCTGC yielded a switch fluorescence ratio of 0.977. Sequence AGATAGGAAT has a switch fluorescence ratio of 0.981. ACGCGTACCG was tested, and the switch fluorescence ratio was 1.02. Sequence CTTGCTGCC has a switch fluorescence ratio of 1.09. Sequence AGACCGATTG has a switch fluorescence ratio of 0.967. AGTAGCTGCG was tested, and the switch fluorescence ratio was 1.03. ACAGAATATT gave a switch fluorescence ratio of 1.02. In the case of TACTTTTTTA, the switch fluorescence ratio is reported as 0.895. CAGGCGAAGT was tested, and the switch fluorescence ratio was 0.957. GCATGGGGG was tested, and the switch fluorescence ratio was 0.969. AAGTGATAGA was tested, and the switch fluorescence ratio was 1.07. CATGTGCAA gave a switch fluorescence ratio of 4.23. In the case of TCGCGA, the switch fluorescence ratio is reported as 1.07. TGCCTATTCT was tested, and the switch fluorescence ratio was 1.04. GGTCTTGGTG showed a switch fluorescence ratio of 0.984. TTCGTCTGTT was tested, and the switch fluorescence ratio was 1.02. AGGCACTGAC gave a switch fluorescence ratio of 1.11. CAGAAGCAGG was tested, and the switch fluorescence ratio was 1.17. In the case of TCGAGCGCGA, the switch fluorescence ratio is reported as 1.01. With GGGAATCTGG the switch fluorescence ratio was 1.02. Sequence CGAGACATAG has a switch fluorescence ratio of 0.944. Sequence TCACCTCTGG has a switch fluorescence ratio of 0.948. In the case of GGCGTGGCAA, the switch fluorescence ratio is reported as 0.978. With GTCGGGCTCC the switch fluorescence ratio was 0.988. With GAGTAAGAAT the switch fluorescence ratio was 1.02. Sequence GCCCGTAGAG has a switch fluorescence ratio of 1.03. Work on CCGATTCCCT yielded a switch fluorescence ratio of 1.01. Work on ATCTCTACTC yielded a switch fluorescence ratio of 1.02. TATCAGTGAA gave a switch fluorescence ratio of 0.984. CAATCATAGG gave a switch fluorescence ratio of 0.999. With GAGTCTACGT the switch fluorescence ratio was 0.989. CAGAGAATCG was tested, and the switch fluorescence ratio was 0.996. For TAAGTGGCAC, the switch fluorescence ratio was 1.01. Sequence TCAATTGGTG has a switch fluorescence ratio of 1.01. In the case of GATTAGTACT, the switch fluorescence ratio is reported as 0.973. GTGCCTTTGA showed a switch fluorescence ratio of 0.983. TAAGGTCGAA was tested, and the switch fluorescence ratio was 0.967. With ATATATCGCT the switch fluorescence ratio was 1.01. TACTGAATCA showed a switch fluorescence ratio of 0.991. TTGCGGGTCA was tested, and the switch fluorescence ratio was 1.04.
